Data on 64 compounds can be found in article PMC6919601, “Identification of Plasmodium dipeptidyl aminopeptidase allosteric inhibitors by high throughput screening” (PLoS ONE, 2019).

SMILES strings stand for the structures. Out of some 110,000 compounds screened, about 230 (0.21%) showed an effect of 50% or more. This is one part of the list.
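Also: 30 min substrate incubation versus DMSO and 10 µM JCP410 controls.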

For this assay, the target named is DPAP1 (Plasmodium falciparum, UniProt Q8IIJ9). Briefly: primary screen, percent inhibition; read by cleavage of a fluorogenic dipeptide substrate; higher = more effect of the substance. Also on record: species or system P. falciparum D10 trophozoite lysates; single well.
Sequence of DPAP1 (Q8IIJ9 whole entry, looked up): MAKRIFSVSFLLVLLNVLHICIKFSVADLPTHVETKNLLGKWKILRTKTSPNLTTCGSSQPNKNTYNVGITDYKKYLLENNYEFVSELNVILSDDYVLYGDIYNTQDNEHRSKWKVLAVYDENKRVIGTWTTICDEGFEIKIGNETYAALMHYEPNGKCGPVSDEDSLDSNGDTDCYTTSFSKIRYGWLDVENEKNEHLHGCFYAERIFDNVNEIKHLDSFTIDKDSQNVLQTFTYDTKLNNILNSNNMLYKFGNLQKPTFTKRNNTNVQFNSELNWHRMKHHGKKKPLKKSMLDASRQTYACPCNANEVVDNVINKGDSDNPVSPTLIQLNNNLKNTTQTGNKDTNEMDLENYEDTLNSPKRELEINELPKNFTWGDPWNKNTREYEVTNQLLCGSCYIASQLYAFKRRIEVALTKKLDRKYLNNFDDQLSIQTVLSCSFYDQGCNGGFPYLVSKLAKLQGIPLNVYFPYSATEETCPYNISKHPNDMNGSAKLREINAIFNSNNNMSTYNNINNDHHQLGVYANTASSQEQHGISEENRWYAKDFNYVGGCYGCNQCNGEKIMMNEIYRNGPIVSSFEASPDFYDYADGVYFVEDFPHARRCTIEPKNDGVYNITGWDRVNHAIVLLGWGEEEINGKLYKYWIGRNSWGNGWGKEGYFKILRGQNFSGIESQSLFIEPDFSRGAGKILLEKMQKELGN
For the compound `COc1cc(/C=C2/SC(=O)N(C(C)C)C2=O)cc2c1OCO2`, the “% Inhibition @ 10 uM” value was -5.92%.

In the case of `CN1C(=O)C(=Cc2ccc(Sc3cccc4ccccc34)o2)C(=O)N(C)C1=O`, the “% Inhibition @ 10 uM” value is recorded as -6.89%. Consider `O=C1CC(c2cccc(C(F)(F)F)c2)c2ccc3ccccc3c2N1` (stereo not shown), for which the “% Inhibition @ 10 uM” value turned out to be 6.18%. For the compound `Cc1cc(C)cc(NC(=O)c2ccc(Cl)cc2Cl)c1`, the “% Inhibition @ 10 uM” value was -3.04%. Take `CCc1ccc(S(=O)(=O)NC(CC(=O)O)c2ccccc2)cc1` (stereo not shown): the “% Inhibition @ 10 uM” value stood at 3.04%.

Consider `CCc1cccc(CC)c1NC(=O)c1cc(OC)c(OC)c(OC)c1`, for which the “% Inhibition @ 10 uM” value is on record as -0.999%.

For the compound `Cc1cc(C)c(OCC(=O)Nc2ccc(F)cc2)c(C)c1`, the “% Inhibition @ 10 uM” value is reported as 1.64%. The result for `CCCCNS(=O)(=O)c1ccc(NC(=O)C2CCCO2)cc1` (stereo not shown) reads 0.686%.

For the compound `CCC(C(=O)NCc1ccc(OC)cc1)n1nc(C)n2c(cc3sccc32)c1=O` (stereo not shown), the “% Inhibition @ 10 uM” value was 1.8%. Turning to `Cc1noc(C)c1S(=O)(=O)N1CCN(C(=O)c2ccco2)CC1`, the “% Inhibition @ 10 uM” value is -1.83%. For `COc1ccc(-c2nc(CSc3nc4ccncc4[nH]3)c(C)o2)cc1OC`, the “% Inhibition @ 10 uM” value is reported as -2.37%. For `CC(C)N1C(=O)/C(=C\c2ccc(C(=O)O)cc2)S/C1=N\c1ccccc1`, the “% Inhibition @ 10 uM” value is 3.79%. Consider `CN(CC(=O)N1CC=C(c2ccccc2)CC1)S(=O)(=O)c1cccs1`, for which the “% Inhibition @ 10 uM” value turned out to be 3.5%. As to `COc1cc(OC)c2c(O)cc(O)nc2c1`, the “% Inhibition @ 10 uM” value was 3.44%. As for `CCOc1ccccc1C1C2=C(O)CC(C)(C)CC2=Nc2ccccc2N1C(C)=O` (stereo not shown), the “% Inhibition @ 10 uM” value worked out at 0.76%. As for `Cc1cc(OCC(=O)Nc2ccc(S(=O)(=O)N3CCc4ccccc43)cc2)ccc1Cl`, the “% Inhibition @ 10 uM” value is on record as 8.18%. Consider `Cc1ccc(C(=O)Nc2c(-c3ccc(F)cc3)nc3ccccn23)cc1`, for which the “% Inhibition @ 10 uM” value is listed as -0.58%. `O=C(NCc1ccco1)c1ccc2nc3ccsc3c(=O)n2c1`: the “% Inhibition @ 10 uM” value is on record as -3.35%. The figure for `COc1ccc(NS(=O)(=O)c2ccc(C)c(C(=O)O)c2)cc1` is -2.82%; for `COc1ccccc1/C=C/c1nc(C#N)c(NCc2ccc3c(c2)OCO3)o1` it is -0.808%. For the compound `N#Cc1ccc(Cn2c(=O)n(CCc3c[nH]c4ccccc34)c(=O)c3cccnc32)cc1`, the “% Inhibition @ 10 uM” value is listed as 3.32%. As to `COC(=O)Nc1scc(-c2cc(C)ccc2C)c1C#N`, the “% Inhibition @ 10 uM” value was -1.98%. For the compound `CC(C)CNC(=O)C(=O)Nc1cccc(Cl)c1`, the “% Inhibition @ 10 uM” value is -5.9%. `CCOC(=O)c1c(NC(=O)COc2ccccc2)sc2c1CC(C)(C)NC2(C)C`: the “% Inhibition @ 10 uM” value is recorded as -3.27%.

Turning to `CC(=O)NC1=NC(=O)/C(=C/c2cc(C)n(-c3cccc(C(=O)O)c3)c2C)S1`, the “% Inhibition @ 10 uM” value turned out to be 4.22%. Regarding `CN1CCN(c2cnn(C34CC5CC(CC(C5)C3)C4)c(=O)c2Cl)CC1`, the “% Inhibition @ 10 uM” value stood at 1.72%. As to `CCCNC(=O)CCc1c(C)nc2c(c(C)nn2-c2ccc(C)c(C)c2)c1C`, the “% Inhibition @ 10 uM” value worked out at 4.14%. As for `COc1ccc(CCNC(=O)CCCn2nc(C)n3ccnc3c2=O)cc1OC`, the “% Inhibition @ 10 uM” value is -1.6%.

Regarding `CCOC(=O)c1cnn(-c2ccc(OC(F)(F)F)cc2)c1N`, the “% Inhibition @ 10 uM” value is reported as 3.81%. The result for `COCC(C)Nc1ncnc2c1c(-c1ccccc1)cn2-c1cccc(C)c1` (stereo not shown) reads -1.62%; that for `C1=C(c2nc3ccccc3[nH]2)CCN(Cc2ccccc2)C1`, -2.44%. Consider `Cc1cc(OCC(=O)N(Cc2ccc(C(C)C)cc2)C2CCS(=O)(=O)C2)ccc1Cl` (stereo not shown), for which the “% Inhibition @ 10 uM” value stood at 2.1%.

Turning to `CC1CCCN(c2nc3c(S(=O)(=O)c4ccccc4)nnn3c3ccsc23)C1` (stereo not shown), the “% Inhibition @ 10 uM” value stood at 3.8%. Take `COC(=O)C1=C(C)N(C)C(=O)/C1=C\c1ccc2c(c1)OCO2`: the “% Inhibition @ 10 uM” value is reported as 1.97%. For `CN1CCN(C)C1=NC(c1ccccc1)(c1ccccc1)c1ccccc1`, the “% Inhibition @ 10 uM” value amounted to 0.131%. The figure for `CCOC(=O)c1c(NC(=O)c2ccncc2)sc2c1CCC2` is 14.5%; for `Cc1ccc(SCc2cccc(C(=O)O)c2)cc1C` it is 1.64%. Take `CCn1ncc(C(=O)Nc2ccc(F)cc2)c1C`: the “% Inhibition @ 10 uM” value is on record as -3.05%. The figure for `CC1(C)CC2CC(C)(CN2C(=O)c2cc(-c3ccccc3O)on2)C1` (stereo not shown) is -0.591%; for `Cc1ccc(NC(=O)C2CCC(C)(C(=O)O)C2(C)C)cc1` (stereo not shown) it is -2.66%; for `COc1cc(CNC(=O)c2ccc(Cl)cc2)cc(OC)c1OC` it is -4.43%. In the case of `COc1ccc(/C=C2/N=C(c3ccc(Br)cc3)NC2=O)cc1`, the “% Inhibition @ 10 uM” value is recorded as -4.11%. The result for `COC(=O)c1c(NC(=O)Cc2ccccc2)sc(C(=O)Nc2ccccc2)c1C` reads 1.43%; that for `CC1CC(C)CN(C(=O)c2ccc([N+](=O)[O-])cc2)C1` (stereo not shown), -1.48%; that for `CCC(=O)C1=C(NCCc2c(C)[nH]c3ccccc23)CC(c2ccccc2)CC1=O` (stereo not shown), 5.88%. The figure for `COc1cc(C(=O)Nc2ncccc2Cl)cc(OC)c1OC` is -4.93%; for `CCCNC(=O)CSc1ncc(C(=O)OCC)c(N)n1` it is 0.677%; for `c1cncc(CNC2CCc3ccccc3C2)c1` (stereo not shown) it is -0.0908%.

Take `CCOC(=O)C1=C(C)NC(=O)NC1c1cc(Cl)ccc1O` (stereo not shown): the “% Inhibition @ 10 uM” value is -1.91%. The result for `CCN(CCCNC(=O)Cn1cnc2c(nc3n2CCCCC3)c1=O)Cc1ccccc1` reads 6.99%; that for `FC(F)(F)COc1nc(N2CCCCC2)nc(N2CCNCC2)n1`, -4.35%; that for `CCOc1ccc(CN2CCOCC2)cc1`, -1.78%.

For `COc1ccc(N(CC(=O)Nc2ccccc2C)S(C)(=O)=O)c(OC)c1`, the “% Inhibition @ 10 uM” value worked out at 4.76%.

Take `CCCCN(C(=O)Nc1cn(C)c(=O)c2ccccc12)C1CCN(C(C)=O)CC1`: the “% Inhibition @ 10 uM” value was 7.22%. The result for `CCN1CCCC1CNC(=O)c1cc(C)nc2c1c(C)nn2-c1cccc(Cl)c1C` (stereo not shown) reads 6.11%. Turning to `CC(=O)N1CCC(C(=O)Nc2nc(-c3ccccc3)ns2)CC1`, the “% Inhibition @ 10 uM” value was -6.55%. `N#CSCC(=O)n1c2ccccc2c2ccccc21`: the “% Inhibition @ 10 uM” value worked out at 0.587%. For `Cc1ccccc1CNC(=O)c1ccccc1NC(=O)C1CC=CCC1C(=O)O` (stereo not shown), the “% Inhibition @ 10 uM” value was determined as 2.49%. `OC1=C2C(=Nc3ccccc3NC2c2ccc(F)cc2)CC(c2cccs2)C1` (stereo not shown): the “% Inhibition @ 10 uM” value came out at 1.57%. Consider `COc1ccc2c(=O)c(-c3ccccc3C)c(C(F)(F)F)oc2c1C`, for which the “% Inhibition @ 10 uM” value is 9.21%. On to `CSC1=C(C#N)C2(CCCCC2)C(C#N)C(=O)N1` (stereo not shown), for which the “% Inhibition @ 10 uM” value is given as -0.736%. For `COc1ccc(CN2CCN(Cc3cccc(Br)c3)CC2)c(OC)c1OC`, the “% Inhibition @ 10 uM” value is -0.822%. On to `CCOC(=O)C1=CN(Cc2ccc(OC)cc2)C=C(C(=O)OCC)C1c1ccc2c(c1)OCO2`, for which the “% Inhibition @ 10 uM” value is listed as -1.48%. On to `CCCCC(=O)Nc1ccc(N2CCN(S(C)(=O)=O)CC2)cc1`, for which the “% Inhibition @ 10 uM” value amounted to 0.343%.
